About 540 (0.36%) of roughly 150,000 compounds showed an effect of 50% or more. The list shows a part of the results.
These molecules were tested on Plasmodium falciparum (assay: Primary screen in NF54 nanoGlo assay, in single point, at 2uM, 72h; a lower Z score goes with more inhibition). Conditions: timepoint 72 hour.
Format: functional, Erythrocyte

Compound | % Inhibition [%] | Z score
COC[C@H]1CCCN(Cc2cc(CN3CCN(C)CC3)c(C)cc2C)C1 | -24 | 2.1
Cc1cnc(Cn2cnc(-c3ccccc3)c2-c2sccc2C)cn1 | -10 | 1.59
c1coc(CN2CN(c3nc4ccccc4s3)CN(c3nc4ccccc4s3)C2)c1 | -7 | 1.05
Cc1ccc(CN(C)C(=O)c2sc(-c3ccco3)nc2-c2ccccc2)o1 | 1 | -0.09
O=c1c(-c2nc3ccccc3[nH]2)c(Cl)c2cc(Cl)ccc2n1Cc1ccccc1 | -46 | 5.43
COc1cccc(-c2nnc(NC(=O)C(c3ccccc3)c3ccccc3)o2)c1 | -8 | 1.42
O=S1(=O)CC[C@H](c2nc(C3(c4ccc(F)cc4)CCC3)no2)C1 | 2 | -0.35
CC(C)[C@H](CNc1cccc(C(=O)N(C)C)n1)N(C)C | -11 | 2.14
CCn1cc(S(=O)(=O)N2CCC3(CC2)C[C@@H]3c2noc(C)n2)cn1 | -13 | 1.82
Cn1nccc1CCNC(=O)N(Cc1c(F)cccc1F)C1CC1 | -12 | 1.22
CN(c1ccccc1NC(=O)NCc1ncnn1C)C1CCCC1 | 33 | -3.78
Cc1ccc(Oc2nc(N3CCC(C)CC3)nc3c2CN(C(=O)c2c(F)cccc2F)CC3)cc1 | -8 | 1.03
CC[C@@H]1Oc2ccc(NC(=O)OCc3ccccc3)cc2CN(CCc2ccc(F)cc2)C1=O | -9 | 0.82
Cc1ccc(NC(=O)N2CCCN(c3ccc(NC(=O)c4cccs4)cc3C(=O)NCc3ccc(F)cc3)CC2)cc1 | 48 | -9.54
O=C(Cc1cc(-c2ccccc2)on1)Nc1nccs1 | -21 | 2.47
CCN(CC)S(=O)(=O)NCc1csc(-c2ccn(C)n2)n1 | -14 | 1.56
COC(=O)C[C@H](NC(=O)c1nn(-c2ccccc2)c(C)cc1=O)c1ccc(C)cc1 | -12 | 1.58
CCC(CC)C(=O)N[C@H]1CCN2C(=O)c3cc(-c4ccc(OC)cc4OC)ccc3NC(=O)[C@@H]2C1 | 9 | -1.09
COc1ncc(NC(=O)Nc2ccc3c(c2)OCO3)c(N2CCCC2)n1 | 0 | -0.05
COCCN(c1ccncc1)S(=O)(=O)c1cccc(C)c1Cl | -8 | 0.7
CO[C@](C)(C(=O)NCc1noc(C)n1)C1CC1 | 20 | -2.48
O=C(NCc1ccc(F)cc1)C1CCN(S(=O)(=O)c2cc(C(=O)N3CCCCCC3)cs2)CC1 | -9 | 1.5
CC(CCC1CC1(Cl)Cl)NCCn1ccnc1 (centres undefined) | 3 | -0.54
Cc1cc(CN(C)C(=O)c2ccc3c(c2)OCO3)no1 | -6 | 0.59
Clc1cnccc1CN1CCc2[nH]cnc2[C@@H]1CCc1ccccc1 | -4 | 0.36
COc1ccc(CN2C(=O)CC[C@@]2(C)C(=O)NCc2ccccc2)cc1 | -2 | 0.27

Compound | % Inhibition [%] | Z score
CCN(CC)C(=O)Cn1ccc2ncccc2c1=O | -1 | 0.21
O=C(CCc1ccc(F)cc1)NCc1cccnc1 | 1 | -0.12
Cc1ccccc1[C@H]1CCN(CCNC(=O)Nc2cccc(CC(N)=O)c2)C1 | 0 | 0.01
COc1ccc(C(=O)Nc2ccc3nccnc3c2)cc1OC | -25 | 2.95
CC(=O)N[C@H](c1nc(C2(c3ccccc3)CC2)nn1CCO)C(C)C | -5 | 0.67
COc1ncccc1C(=O)Nc1ccccc1Nc1ccncc1 | -8 | 1.57
CCN(CC)c1nc(Nc2ccc(Cl)c(Cl)c2)nc(Nc2cc(C)ccc2C)n1 | 41 | -5.24
CN(CC#CCNC(=O)c1ccc(Cl)cc1)Cc1ccccc1 | -4 | 0.6
C=C(C)COCCNC(=O)N1CCC(C)C1CO (centres undefined) | -10 | 1.5
Cc1nc(C(=O)N2CCC(F)(F)C2)c[nH]1 | -2 | 0.21
CO[C@H]1CCN(C(=O)c2csc3ccccc23)CC1(C)C | -4 | 0.43
O=C([C@H]1CCN(C2CCCCC2)C1)N1CCc2sccc2C1 | 1 | -0.23
COc1ccc2cc(C(=O)NCc3ccnc(Oc4ccccc4)c3)[nH]c2c1 | -7 | 1.13
CCCS(=O)(=O)Nc1ccc(S(=O)(=O)N(C)[C@@]2(C#N)CCOC2)cc1F | -6 | 0.71
COc1ccc(OC)c(S(=O)(=O)N(CCC(=O)N2CCNCC2)C[C@H]2CCCO2)c1 | -3 | 0.56
COC(=O)c1cc(-c2ccc(C(=O)N3CCC[C@@]4(CCN(C)C4)C3)cc2)c[nH]1 | -13 | 2.5
Cc1ccnc(N2CCC(O)(Cn3ccnc3)CC2)n1 | -12 | 1.12
O=C(N[C@@H]1CN(C2CCCCCC2)CC[C@@H]1CO)c1cccnc1 | -10 | 1.32
COc1cc(CNc2cccc(-c3nc4ccccc4s3)c2)ccc1OCc1c(Cl)cccc1Cl | -39 | 4.57
O=C(c1cc(-c2ccc(O)cc2)n[nH]1)N1CCC[C@@](O)(CO)C1 | -17 | 1.55
Cc1nc(-c2cc(S(=O)(=O)N3CCCCC3)c(C)n2C)sc1C(=O)N1CCCCCC1 | 4 | -0.41
O=C(COc1ccc(F)cc1)N1CCc2nc(OCC3CC3)ccc2C1 | 36 | -5.15
O=C(c1ccc2ncccc2c1)N1CCC(Cc2nnc(C3CC3)[nH]2)CC1 | 0 | -0.06
CN(Cc1ccccc1)C(=O)CCC1CCN(C(=O)[C@@H]2CNCC(=O)N2)CC1 | -3 | 0.52
CC1CN(Cc2ccccc2)CC(C)C1NC(=O)Nc1nccs1 (centres undefined) | 1 | -0.11
CC(C)n1ccc(CN2CCN(S(=O)(=O)c3ccc(F)cc3)CC2)n1 | -4 | 0.5

Reference: ChEMBL document CHEMBL4888484, “Replenishing the malaria drug discovery pipeline: Screening and hit evaluation of the MMV Hit Generation Library 1 (HGL1) against asexual blood stage Plasmodium falciparum ,using a nano luciferase reporter read-out” (2022)
